Reference: paper PMC5834211
Results are given in words; binding and its absence hold for the method and conditions named. In cells and extracts the contact can be indirect. Some results given as binding are weak or reduced against the parent protein; the word gives no strength. Sequences can lack the tags named with a protein.

By UniProt entry, the sequences of proteins in these tests, tags left out.
UniProt Q7Z434: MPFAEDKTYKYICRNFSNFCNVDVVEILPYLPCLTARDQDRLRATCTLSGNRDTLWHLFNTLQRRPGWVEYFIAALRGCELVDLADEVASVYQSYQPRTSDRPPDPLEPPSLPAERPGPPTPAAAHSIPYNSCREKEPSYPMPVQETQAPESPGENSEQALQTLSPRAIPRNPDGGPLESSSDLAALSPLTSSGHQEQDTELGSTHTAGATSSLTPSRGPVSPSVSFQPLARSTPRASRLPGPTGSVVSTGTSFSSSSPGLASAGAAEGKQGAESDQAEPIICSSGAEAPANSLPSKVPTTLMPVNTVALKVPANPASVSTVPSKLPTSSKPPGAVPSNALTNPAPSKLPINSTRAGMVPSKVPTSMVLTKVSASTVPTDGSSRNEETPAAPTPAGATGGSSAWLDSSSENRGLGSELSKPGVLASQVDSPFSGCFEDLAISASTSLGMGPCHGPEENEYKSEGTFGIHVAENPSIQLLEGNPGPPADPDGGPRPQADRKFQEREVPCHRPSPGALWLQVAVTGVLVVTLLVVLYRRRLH

Key:
[1] = biological target: T1, HA-DHX29a [1-530 aa] (human) (UniProt Q7Z478); assay: co-IP; 293T cells cotransfected; whole cell lysates immunoprecipitated with anti-HA beads, immunoblotted with anti-Flag (Fig 5A, Fig 6A); also in RIG-I knockout 293T cells (S5D Fig)
T1 sequence: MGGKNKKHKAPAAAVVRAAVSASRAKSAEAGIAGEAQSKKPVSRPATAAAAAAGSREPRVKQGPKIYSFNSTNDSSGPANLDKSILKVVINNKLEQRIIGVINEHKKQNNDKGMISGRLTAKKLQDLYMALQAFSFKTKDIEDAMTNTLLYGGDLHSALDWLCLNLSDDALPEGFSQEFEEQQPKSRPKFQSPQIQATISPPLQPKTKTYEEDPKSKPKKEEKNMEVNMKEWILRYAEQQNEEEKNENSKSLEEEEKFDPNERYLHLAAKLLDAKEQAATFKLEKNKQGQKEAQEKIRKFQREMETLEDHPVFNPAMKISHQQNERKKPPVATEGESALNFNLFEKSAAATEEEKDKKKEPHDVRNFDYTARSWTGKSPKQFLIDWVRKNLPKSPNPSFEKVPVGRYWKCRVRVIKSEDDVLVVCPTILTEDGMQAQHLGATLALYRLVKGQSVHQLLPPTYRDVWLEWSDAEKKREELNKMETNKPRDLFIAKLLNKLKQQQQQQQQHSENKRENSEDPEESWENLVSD

[2] = biological target: T2, HA-DHX29b [1-830 aa] (human) (UniProt Q7Z478); assay: as above
T2 sequence: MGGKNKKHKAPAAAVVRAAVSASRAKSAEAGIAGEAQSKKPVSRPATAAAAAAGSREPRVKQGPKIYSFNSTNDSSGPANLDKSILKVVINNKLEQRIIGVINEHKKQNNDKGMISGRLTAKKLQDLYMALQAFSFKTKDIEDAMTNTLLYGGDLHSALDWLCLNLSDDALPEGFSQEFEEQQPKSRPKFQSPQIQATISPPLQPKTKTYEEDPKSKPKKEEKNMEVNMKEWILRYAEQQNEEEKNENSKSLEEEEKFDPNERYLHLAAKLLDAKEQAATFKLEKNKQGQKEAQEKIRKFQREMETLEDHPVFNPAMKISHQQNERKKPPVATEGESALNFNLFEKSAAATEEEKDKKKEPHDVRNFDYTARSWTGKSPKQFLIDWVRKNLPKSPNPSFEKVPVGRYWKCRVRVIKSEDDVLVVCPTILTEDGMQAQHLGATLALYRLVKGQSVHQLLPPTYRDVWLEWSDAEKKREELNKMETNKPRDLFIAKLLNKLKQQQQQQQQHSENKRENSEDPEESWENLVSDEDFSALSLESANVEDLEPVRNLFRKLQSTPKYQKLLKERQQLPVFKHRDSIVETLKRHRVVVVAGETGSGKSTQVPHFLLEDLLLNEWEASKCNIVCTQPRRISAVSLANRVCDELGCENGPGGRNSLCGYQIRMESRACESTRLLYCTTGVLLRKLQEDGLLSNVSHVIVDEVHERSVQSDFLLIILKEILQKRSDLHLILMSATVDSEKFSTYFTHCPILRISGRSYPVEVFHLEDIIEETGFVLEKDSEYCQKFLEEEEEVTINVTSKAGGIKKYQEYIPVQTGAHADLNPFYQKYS

[3] = biological target: T3, HA-DHX29 (full-length, FL-DHX29) (human) (UniProt Q7Z478); assay: as above
T3 sequence: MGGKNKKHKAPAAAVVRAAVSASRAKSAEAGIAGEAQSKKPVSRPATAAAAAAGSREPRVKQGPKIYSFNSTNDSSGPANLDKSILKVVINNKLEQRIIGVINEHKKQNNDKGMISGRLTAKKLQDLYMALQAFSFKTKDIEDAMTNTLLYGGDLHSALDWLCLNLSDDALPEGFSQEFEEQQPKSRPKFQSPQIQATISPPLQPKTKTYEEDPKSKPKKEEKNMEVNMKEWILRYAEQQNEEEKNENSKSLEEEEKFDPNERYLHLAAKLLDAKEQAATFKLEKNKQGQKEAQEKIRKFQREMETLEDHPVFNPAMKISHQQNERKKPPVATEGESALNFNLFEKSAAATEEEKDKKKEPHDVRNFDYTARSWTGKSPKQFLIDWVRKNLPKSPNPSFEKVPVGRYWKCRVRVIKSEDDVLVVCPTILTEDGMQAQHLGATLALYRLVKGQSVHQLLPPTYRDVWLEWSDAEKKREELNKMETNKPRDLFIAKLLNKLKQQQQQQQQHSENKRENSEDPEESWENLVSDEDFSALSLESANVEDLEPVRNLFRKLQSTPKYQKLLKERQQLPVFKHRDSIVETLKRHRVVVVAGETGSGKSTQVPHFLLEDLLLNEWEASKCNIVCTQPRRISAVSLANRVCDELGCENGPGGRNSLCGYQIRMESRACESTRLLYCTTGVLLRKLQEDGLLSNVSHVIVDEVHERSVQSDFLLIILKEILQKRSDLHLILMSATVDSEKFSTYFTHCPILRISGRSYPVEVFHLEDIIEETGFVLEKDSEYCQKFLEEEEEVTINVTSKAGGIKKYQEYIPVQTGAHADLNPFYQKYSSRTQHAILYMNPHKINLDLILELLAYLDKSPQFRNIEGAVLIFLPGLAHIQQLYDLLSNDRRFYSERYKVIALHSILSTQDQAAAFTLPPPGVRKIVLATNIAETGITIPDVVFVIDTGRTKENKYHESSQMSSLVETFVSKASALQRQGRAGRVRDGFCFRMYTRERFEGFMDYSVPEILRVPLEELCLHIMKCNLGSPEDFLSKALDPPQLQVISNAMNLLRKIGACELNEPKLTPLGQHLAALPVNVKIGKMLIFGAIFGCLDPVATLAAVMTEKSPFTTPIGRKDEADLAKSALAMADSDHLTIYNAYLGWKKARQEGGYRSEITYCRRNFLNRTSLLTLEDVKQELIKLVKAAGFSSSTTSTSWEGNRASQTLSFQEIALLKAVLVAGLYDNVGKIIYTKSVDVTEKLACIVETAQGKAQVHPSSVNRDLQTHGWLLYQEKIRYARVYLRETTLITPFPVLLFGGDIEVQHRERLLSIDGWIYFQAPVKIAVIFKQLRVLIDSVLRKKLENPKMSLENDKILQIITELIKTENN

Flag-MAVS = Flag-MAVS (UniProt Q7Z434); assay: co-IP; 293T cells expressing Flag-MAVS and Flag-MDA5 (as the legend prints), DHX29 siRNA or scrambled siRNA, stimulated with intracellular HMW Poly(I:C); immunoprecipitated with anti-HA antibody, immunoblotted with anti-HA and anti-Flag

Measured: binding

B1: Flag-MDA5 (full-length, FL-MDA5) (protein, UniProt Q9BYX4 1-1025)
chain: MSNGYSTDENFRYLISCFRARVKMYIQVEPVLDYLTFLPAEVKEQIQRTVATSGNMQAVELLLSTLEKGVWHLGWTREFVEALRRTGSPLAARYMNPELTDLPSPSFENAHDEYLQLLNLLQPTLVDKLLVRDVLDKCMEEELLTIEDRNRIAAAENNGNESGVRELLKRIVQKENWFSAFLNVLRQTGNNELVQELTGSDCSESNAEIENLSQVDGPQVEEQLLSTTVQPNLEKEVWGMENNSSESSFADSSVVSESDTSLAEGSVSCLDESLGHNSNMGSDSGTMGSDSDEENVAARASPEPELQLRPYQMEVAQPALEGKNIIICLPTGSGKTRVAVYIAKDHLDKKKKASEPGKVIVLVNKVLLVEQLFRKEFQPFLKKWYRVIGLSGDTQLKISFPEVVKSCDIIISTAQILENSLLNLENGEDAGVQLSDFSLIIIDECHHTNKEAVYNNIMRHYLMQKLKNNRLKKENKPVIPLPQILGLTASPGVGGATKQAKAEEHILKLCANLDAFTIKTVKENLDQLKNQIQEPCKKFAIADATREDPFKEKLLEIMTRIQTYCQMSPMSDFGTQPYEQWAIQMEKKAAKEGNRKERVCAEHLRKYNEALQINDTIRMIDAYTHLETFYNEEKDKKFAVIEDDSDEGGDDEYCDGDEDEDDLKKPLKLDETDRFLMTLFFENNKMLKRLAENPEYENEKLTKLRNTIMEQYTRTEESARGIIFTKTRQSAYALSQWITENEKFAEVGVKAHHLIGAGHSSEFKPMTQNEQKEVISKFRTGKINLLIATTVAEEGLDIKECNIVIRYGLVTNEIAMVQARGRARADESTYVLVAHSGSGVIEHETVNDFREKMMYKAIHCVQNMKPEEYAHKILELQMQSIMEKKMKTKRNIAKHYKNNPSLITFLCKNCSVLACSGEDIHVIEKMHHVNMTPEFKELYIVRENKALQKKCADYQINGEIICKCGQAWGTMMVHKGLDLPCLKIRNFVVVFKNNSTKKQYKKWVELPITFPNLDYSECCLFSDED
binds: all assays above
